From publication PMC12820563, “FoxP3 forms a head-to-head dimer in vivo and stabilizes its multimerization on adjacent microsatellites”
The list shows a part of the results.

The sequences below were run against T1, MBP-FoxP1dN (Mus musculus, UniProt P58462 326-579) (assay: PD-seq (MBP pull-down with sequencing); 20 mM Tris-HCl pH 7.5, 100 mM NaCl, 1.5 mM MgCl2, 0.4 uM protein, 0.1 uM dsDNA library, 30 min, room temperature, amylose pull-down; high values mean tight binding). Conditions: protein: recombinant; tags: His6-MBP; chain copies: 2; dsDNA, one strand shown.
T1 sequence: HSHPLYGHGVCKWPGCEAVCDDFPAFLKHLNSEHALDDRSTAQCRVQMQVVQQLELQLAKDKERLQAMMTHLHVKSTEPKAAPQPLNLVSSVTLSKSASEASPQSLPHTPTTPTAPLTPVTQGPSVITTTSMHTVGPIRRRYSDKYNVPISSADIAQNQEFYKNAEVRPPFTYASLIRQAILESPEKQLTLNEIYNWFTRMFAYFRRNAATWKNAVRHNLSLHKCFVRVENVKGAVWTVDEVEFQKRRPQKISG
Procedure, shortened: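 Mouse FoxP3 or FoxP1 fragment lacking the N-terminus, His6-MBP-tagged and expressed in E. coli, was incubated at 0.4 µM with 0.1 µM Klenow-filled degenerate double-stranded DNA library for 30 min at room temperature in Tris pH 7.5 buffer with NaCl and MgCl2. Complexes captured on amylose resin were washed three times and their DNA sequenced on Illumina. Binding is reads-per-million enrichment of pull-down over input, replicates pooled.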

Sequence | binding signal
GATGATTGTTCTCCCAGCTGATGAATTAAGTATCTCGAGTAAACAAATTTTCCTAATCTTTCTGTTCAAGCGCCATCTAC | 1.06 RPM ratio (pull-down/input)
GATGATTGTTCTCCCAGCTGATGAATTACTAAGATCGAGTAAACAAATTTTCCTAATCTTTCTGTTCAAGCGCCATCTAC | 1.09 RPM ratio (pull-down/input)
GATGATTGTTCTCCCAGCTGATGAATTACTGAAGTCGAGTAAACAAATTTTCCTAATCTTTCTGTTCAAGCGCCATCTAC | 1.03 RPM ratio (pull-down/input)
GATGATTGTTCTCCCAGCTGATGAATTTTGACTCTCGAGTAAACAAATTTTCCTAATCTTTCTGTTCAAGCGCCATCTAC | 0.887 RPM ratio (pull-down/input)
GATGATTGTTCTCCCAGCTGATGAATTTTTGACCTCGAGTAAACAAATTTTCCTAATCTTTCTGTTCAAGCGCCATCTAC | 0.849 RPM ratio (pull-down/input)
GATGATTGTTCTCCCAGCTGATGAATTAGGAAAATCGAGTAAACAAATTTTCCTAATCTTTCTGTTCAAGCGCCATCTAC | 1.06 RPM ratio (pull-down/input)
GATGATTGTTCTCCCAGCTGATGAATTCTTTGGTTCGAGTAAACAAATTTTCCTAATCTTTCTGTTCAAGCGCCATCTAC | 0.938 RPM ratio (pull-down/input)
GATGATTGTTCTCCCAGCTGATGAATTCCTTGCTTCGAGTAAACAAATTTTCCTAATCTTTCTGTTCAAGCGCCATCTAC | 0.906 RPM ratio (pull-down/input)
GATGATTGTTCTCCCAGCTGATGAATTGACGGCCTCGAGTAAACAAATTTTCCTAATCTTTCTGTTCAAGCGCCATCTAC | 0.983 RPM ratio (pull-down/input)
GATGATTGTTCTCCCAGCTGATGAATTTTCATAATCGAGTAAACAAATTTTCCTAATCTTTCTGTTCAAGCGCCATCTAC | 1.22 RPM ratio (pull-down/input)
GATGATTGTTCTCCCAGCTGATGAATTGTTACCCTCGAGTAAACAAATTTTCCTAATCTTTCTGTTCAAGCGCCATCTAC | 1.16 RPM ratio (pull-down/input)
GATGATTGTTCTCCCAGCTGATGAATTGGTTCTATCGAGTAAACAAATTTTCCTAATCTTTCTGTTCAAGCGCCATCTAC | 1.02 RPM ratio (pull-down/input)
GATGATTGTTCTCCCAGCTGATGAATTCAGGCGATCGAGTAAACAAATTTTCCTAATCTTTCTGTTCAAGCGCCATCTAC | 0.825 RPM ratio (pull-down/input)
GATGATTGTTCTCCCAGCTGATGAATTACACATGTCGAGTAAACAAATTTTCCTAATCTTTCTGTTCAAGCGCCATCTAC | 1.25 RPM ratio (pull-down/input)
GATGATTGTTCTCCCAGCTGATGAATTGCTATCATCGAGTAAACAAATTTTCCTAATCTTTCTGTTCAAGCGCCATCTAC | 1.23 RPM ratio (pull-down/input)
GATGATTGTTCTCCCAGCTGATGAATTGGGGGAGTCGAGTAAACAAATTTTCCTAATCTTTCTGTTCAAGCGCCATCTAC | 0.821 RPM ratio (pull-down/input)
GATGATTGTTCTCCCAGCTGATGAATTGATGGCTTCGAGTAAACAAATTTTCCTAATCTTTCTGTTCAAGCGCCATCTAC | 0.937 RPM ratio (pull-down/input)
GATGATTGTTCTCCCAGCTGATGAATTCGGGTTTTCGAGTAAACAAATTTTCCTAATCTTTCTGTTCAAGCGCCATCTAC | 0.82 RPM ratio (pull-down/input)
